Variants at the floor of the assay are shown more often than the library holds them.
B1: TPR 5TU (parent)
chain: GGAUCUUCUCGAUCUAACAAAAAAGACAAAUCUGCCACAAAGCUUGAGAGCAUCUUCGGAUGCAGAGGCGGCAGCCUUCGGUGGCGCGAUAGCGCCAACGUUCUCAACUAUGACACGCAAAACGCGUGCUCCGUUGAAUGGAGUUUAUCAUG

Variants of: B1
Experiment: polymerase ribozyme fitness, log enrichment relative to wild type (log ratio); higher = more active; in vitro selection for triplet polymerase activity
How it was run: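 One round of in vitro selection, in triplicate, was applied to PCR-built, transcribed mutant libraries of each subunit of a heterodimeric triplet polymerase ribozyme. The steps were annealing with a biotinylated primer, partner subunit and triplets, incubation frozen at −7 °C, gel excision of extended constructs, streptavidin-bead capture and RT-PCR. Fitness is the logarithm, base 2, of genotype enrichment over wild-type enrichment from inverse-variance-weighted replicate averages of Illumina-sequenced inputs and outputs, keeping genotypes with ≥10 input reads and ≥1 read per output.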

Polymerase ribozyme fitness (log ratio), ≤ -4.2:
GGAUCUUCUCGAUCUAACAAAAAAGACAACUCUGCCACAAAGCUUGAGAGCAUCUUCGGAUGCAGAGGCGGCAGCCUUCGGGGGCGAGGUAGCGCCAACGUUCUCAACUAUGACACGCAAAACGCGUGCUCCGUUGAAUGGAGUUUAUCAUG
GGAUCUUCUCGAUCUAACAAAAAAGACAUAUCUGCCACAAAGCUUGAGAGCAUCUUCGGAUGCAGAGGCGGCAGCCUACGGUGGCGCGAUAGCGCCAACGUUCUCAACUAUGACACGUAAAACGCGUGCUCCGUUGAAUGGAGUUUAUCAUG
GGAUCUUCUCGAUCUAACAAAAAAGACAACUCUGCCACAAAGCAUGAGAGCAUCUUCGGAUGCAGUGGCGGCAGCCUUCGGUGGUGCGAUAGCGCCAUCGUUUUCAACUAUGACACGCAAAACGCGUGCUCCGUUGAAUGGAGUUUAUCAUG
GGAUCUUCUCGAUCUAACAAAAAAGACAAGUCUGCCACAAAGCUUGCGAGCAUCUUCGGAUGCAGAGGCGGCAGUCUUCGGUGGCGCGAUAGCGCCAACGUUCUCAACUAUGACACGCAAAACGCGUGCUCCGUUGAAUGGAGUUUAUCAUG
GGAUCUUCUCGAUCUAACAAAAAAGACAACUCUGCCACAAAGCUUGAGAGCAUCUUCCGAUGCAGUGGCGGCAGCCGUCGGUGGCGCGAUAGCGCCAACGUUCUCAACUAUGACACGCAAAACGCGUGCUCCGUUGAAUGGAGUUUAUCAUG
GGAUCUUCUCGAUCUAACAAAAAAGACAACUCUGCCACCAAGCUUGAGAGCAUCGUCGGAUGCAGAGGCGGAAGCCUUCGGUGGCGCGAAGACGCCAACGUUCUCAACUAUGACAAGCAAAACGCGUUCUACGUUGACUGGAGUUUAUCAUG
GGAUCUUCUCGAUCUAACAAAAAAGACAUAUCUGCCACAAAGCUUGAGAGCAUCUUCGGAUGCAGAGGCGGCAGCCGUCGGUGGCGCGAUAGCGCCAACGUUCUCAACUAUGAAACGCAAAACGCGUGCUCCGUUGAAUGGAGUUUAUCAUG
GGAUCUUCUCGAUCUAACAAAAAAGACAAGUCUGCCACAAAGCUUGAGAGCAUCUUCGGAUGCAGAGGCGGCAGCCUUCGGUGGCGCGAUAGCGCAAACGUUCUCAACUAUGACACGCAAAACGCGUGCGCCGUUGAAUGGAGUUUAUCAUG
GGAUCUUCUCGAUCUAACAAAAAAGACAUAUCUGCCACAAAGCUUGAGAGCAUCUUCGGAUGCAGAGGCGGCAGCCAUCGGUGGCGCGAUAGCGCCAACGGUCUCAACUAUGACACGCAAAACGCGAGCUCCGUUGAAUUGAGUUUAUCAUG
GGAUCUUCUCGAUCUAACAAAAAAGACAUAUCUGCCACAAAGCUUGAGAGCAACUUCGGAUGCAGAGGCGGCAGCCUUCGGUGGCGCGAUAGAGCCAACGUUCUCAACUAUGACACGCAAAACGCGUGCUCCGUUGAAUGGAGUUUAUCAUG
GGAUCUUCUCGAUCUAACAAAAAAGACAACUCUGCCACAAAGCUUGAGAGCAUCUUCGGAUGCAGUGGCGGCAGCCGUCGGUGGCGCGAUAGCGCCAACGUUCUCAACUAUGACACGCAAAACGCGUGCUCCGUUGAAUGGAGUUUAUCAUG
GGAUCUUCUCGAUCUAACAAAAAAGACAAGUCUGCCAAAAAGCUUGAGAGCAUCUUCGGAUGCAGAGGCGGCAGCCUUCGGUGACGCGAUAGCGCCAACGUUCUCAACUAUGACACGCAAAACGCGUGCUCCGUUGGAUGGAGUUUAUCAUG
GGAUCUUCUCGAUCUAACAAAAAAGACAAGUCUGCCACGAAGCUUGAGAGCAUCUUCGGAUGCAGAGGCGGGAGCCUUCGGUGGCGCGAUAGCGCCAACGUUCUCAACUAUGACAAGCAAAACGCGUGCUCCGUUGACUGCAGUUUAUCAUG
GGAUCUUCUCGAUCUAACAAAAAAGACAAGUCUGCCACAAAGCUUGAGAGCCUCUUCGGAUGCAGAGGCGGCAGCCUUCGGUGGCGCGAUAGAGCCAACGUUCUCAACUAUGUCACGCAAAACGCGUGCUCCGUUGAAUGGAGUUUAUCAUG
GGAUCUUCUCGAUCUAACAAAAAAGACAAGUCUGCCACAAAGCUUGAGCGCAUCUUCGGAUGCAGAGGUGGCAGCCUUCUGUGGCGCGAUAGCGCCAACGUUUUCAACUAUGACACGCAAAACGCGUGCUCCGUUGAAUGGAGUUUAUCCUG
GGAUCUUCUCGAUCUAACAAAAAAGACAACUCUUCCACAAAGAUUGAGAGCAUCUUCGGAUGCAGAGGCGGCAGCCUUCCGUAGCGCGAUGGCGCCAACGUUCUCAACUAUGACACGCAAAACGCGUGCUCCGUUGGAUGGAGUUUAUCAUG
GGAUCUUCUCGAUCUAACAAAAAAGACAAGUCUGCCACAAAGCUUGCGAGCAUCUUCGGAUGCAGAGGCGGCAGCCUUCGGUGGCGUGAUAGCGCCAACGUUCUCAACUAUGGCACGGAAAACGCGUGCUCCGUUGAAUGGAGUUUAUCAUG
GGAUCUUCUCGAUCUAACAAAAAAGACAACUCUGCCACACAGCUUGCGAGCAUCUUCGGAUGCAGAGGCGGCAGCCUUCGGUGACGCGAUAGCGCCAACGUUCUCAACUAUGACACGCAAAACGCGUGCUCCGUUGAAUGGAGUUUAUCAUG
GGAUCUUCUCGAUCUAACAAAAAAGACAUAUCUGCCACAAAGCUUGAGAGCACCUUCGGAUGCAGAGGCGGCAGCCUUCGGUGGCGCUAUAGCGCCAACGUUCUCAACUAUGACACGCAAAACGCGUGCUCCGUUGAAUGGAAUGUAUCAGG
GGAUCUUCUCGAUCUAACAAAAAAGACAACUCUGCCACAAAGCCUGAGAGCAUCUUCCGAUGCAGAGGCGGCAGCCUUGGGUGGCACGAUAGCGCCAACGUUCUCAACUAUGACACGCAAAACGCGUGCUCCGUUGAAUGGAAUUUAUCAAG
GGAUCUUCUCGAUCUAACAAAAAAGACAAGUCUGCCACAAAGCUUGCGAUCAUCUUCGGAUGCAGAGGCGGCAGCCUUCGGUGGCGGGAUAGCGCCAACGUUCUCAACUAUGACACGCAAAACGCGUGCUCCGUUGAAAGGAGUUUAUCAUG
GGAUCUUCUCGAUCUAACAAAAAAGACAACUCUGCCACAAAGCUUGAGAGCAUCUUCGGAUGCCGAGGCGGCAGCCUUCGGUGGCGCGAUAGCGCCAACGUUCUCAACUAUGACAGGCAAAACGCGUGCUCCGUUGAAUGGAGUUUAUCAUG
GGAUCUUCUCGAUCUAACAAAAAAGACAUAUCUGCCACAAAGCUUGAGAGCAGCUUCGGAUGCAGAGUCGGCAGCCUUCGGUGGCGCGAUAGCGCCAACGUUCUCAACUAUGACACGCAAAACGCGUGCUCCGUUGAAUGGAGUUUAUCAUG
GGAUCUUCUCGAUCUAACAAAAAAGACAACUCUGCCACAAAGCUUGUGAGCAUCUUCGACUGCAGAGGCGGCAGCCUUCGGUGGCGCGAUUGCGCCAACGUUCUCGACUAGGACACGCAAAACGCGUGCUCCGUUGAAUGGAGUUUAUCAUG
GGAUCUUCUCGAUCUAACAAAAAAGACAACUCUGCCACAAAGCUUGAGUGCAUCUUCGGAUGCAGAGGCGGCAGCCUUCGGUGGCGCGAUAGCUCCAACGUUCUCAACUCUGACACGCAAAACGCGUGCUCCGUUGAAUGGAGGUUAUCAUG
GGAUCUUCUCGAUCUAACAAAAAAGACAACUCUGCCACAAAGCUUGAGAGCAUCUUCGGAUGCAGAGGCGGCAGCCUUCGGUGGCGCGAUGGAGCCAACGUUCUCAACUAUGACACGCAAAACGCGUGCUCCGUUGAAUGGAGUUUAUCAUG
GGAUCUUCUCGAUCUAACAAAAAAGACAACUCUGCCACAAAGCUUGAGAGCAUCUUCGGAUGCAGCGGCGGCAGCCUUCGGUGGCGAGAUAGCGCCAACGUUCUCAACUAUGACACGCAAAACGCGAGCUCCGUUGAAUGGAGUUUAUCAUG
GGAUCUUCUCGAUCUAACAAAAAAGACAACUCUGCCAAAAAGCUUGAGAGCAUCUUCGGAUGCAGAGGCGGCAGCCUUCGGUGGCGAGAUAGCGCCAACGUUCUCAACUAUGACACGCAAAACGCGUGCUCCGUUGAAUGGAGUUUAUCAUG
GGAUCUUCUCGAUCUAACAAAAAAGACAAGUCUGCCACAAAGCUUGAGAGCGUCUUCGGAUGCAGAGGCGGCAGCCUUCGGUGGCGUGAUGGCGCCAACGUUCUCAACUAUGACACGCAAAACGCGUGCUCCGUUGAAUGGAGUUUAUCAUG
GGAUCUUCUCGAUCUAACAAAAAAGACAACUCUGCCACAAAGCUUGAGAGCAUCUUGGGAUGCAGAGGCGGCAGCCUUCGGUGGAGCGAUAGCGCCAUCGUUCUCAACUAUGACACGCAUAACGCGUGCUCCUUUGAAUGGAGUUUAUCAUG
GGAUCUUCUCGAUCUAACAAAAAAGACAAGUCUGCUACAAAGCUUGAGAGCAUCUUCAGAUGCAGAGGCGGCAGCCUUCGGUGGCGCGAUAGGGCCUACGUUCUCAACUAUGACACGCAAAACGCGUGCUCCGUUGAAUGGAGUUUAUCAUG
GGAUCUUCUCGAUCUAACAAAAAAGACAACUCUGCCACAAAGCUUGAGAGCAUCUUCGGAUGCAGAGGCGGUAGCCUUGGGUGGCGUGAUAGCGUCAACAUUCUCAACUAUGACACGCAAAACUCGUGCUCCGUUGGAUGGAGUUUAUCAUG
GGAUCUUCUCGAUCUAACAAAAAAGACAUAUCUGCCACAAAGCUUGAGAGCAGCUUCGGAUGCAGAGGCGGCAGCAUUCGGUGGCGCGAUAGCGCCAGUGUUCUCAACUAUGACACGCUAAACGCGUGCUCCGUUGAAUGGAGUUUAUCAUG
GGAUCUUCUCGAUCUAACAAAAAAGACAAGUCUGCCACAAAGCUUGAGAGCAUCUUCGGAUGCAGAGGCGGCUGCCUUCGGUGUCGCGAUAGCGCCAACGUUCUCAACUAGGACACGCAAAACGCGUGCUCCUUUGAAUGAAGUUUAUCAUG
GGAUCUUCUCGAUCUAACAAAAAAGACAACUCUGCCACAAAGCUUGAGAGCAUCUUCGGAUGCAGAGGCGGCAGCCUUCGGUGGCGCGAUAGUGCCAACGUUCUCAACUGUGACACGCAAAACGCGUGCUCCGUUGAAUGGAGUUUAUCACG
GGAUCUUCUCGAUCUAACAAAAAAGACAACUCUGCCACAAAGCUUGAGACCAUCUUCGGAUGCAGAGGCGGAAGCCUUCGGUUGCGCGAUAGCGCCAUCGUUCUCAACUUUGACAGGCAAAACGCGUGCUCCGUUGAAUGGAGUUUAUCAUG
GGAUCUUCUCGAUCUAACAAAAAAGACAACUCUGCCACAAAGCUUGAGAGCAUCUUCGGAUGCAGAGGCGGCAGCCUUCGGUGGAGCGUUAGCGCCAACGUUCUCAACUAUGACACGCAAAACGCGUGCUCCGUUGAAUGGAGUUUAUCAUG
GGAUCUUCUCGAUCUAACAAAAAAGACAUAUCUGCCACAAAGCUUGAGAGCAUCAUCGGAUGCAGAGUCGGCAGCCUUCGGUGGCGUGAUAGCGCCAACUGUCUCAACUAUGACACGCAAAACGCGUGCUCCGUUGAAUGGAGUUUAUCAUG

Source: the RNAGym collection of RNA variant scans (doi:10.1073/pnas.2313332121)
